From PubChem BioAssay AID624417 (National Center for Advancing Translational Sciences (NCATS), 2012)
“And” between values parts separate entries of the source, which are not always exact repeats. Equal entries are not always repeated. Among all 410,000 compounds or so, about 6,400 (1.6%) were called active. The inconclusive results got no clear call from the source; some entries with a clear call stand among them for comparison. Calls come from the whole dose curve; as a rule, active = well fitted inhibition curve with a large enough effect; inconclusive = small, poorly fitted or top-dose-only effect; inactive = no such curve, though single readings can be large or run the other way. Potencies beside an inconclusive call are fits to weak or partial responses and may not hold up.

Each compound was assayed against Glucagon-like peptide 1 receptor (Homo sapiens) (UniProt P43220) (assay: qHTS of GLP-1 Receptor Inverse Agonists (Inhibition Mode)). Details: HEK293 GLP-1R CRE-luciferase, luminescence, 24 h, GLP-1R form is constitutively active; activity change, negative = inhibition: at 38.3 µM (top of the series) unless noted.
Procedure, shortened: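 HEK293 cells stably co-expressing a cAMP-responsive luciferase reporter and constitutively active GLP-1R were seeded, incubated 12 h, then exposed to compounds for 24 h at 37 C. Luminescence was read 12 min after detection reagent; inverse agonists lower signal.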
% is set by controls: 0 for no effect and ±100 for the full control effect; potency is the fitted concentration of half-maximal effect; tags give direction and shape of the fitted curve.
Note: nearly all actives have a fitted effect of over 55% in size.

Chain of UniProt P43220 (P43220 whole entry, looked up): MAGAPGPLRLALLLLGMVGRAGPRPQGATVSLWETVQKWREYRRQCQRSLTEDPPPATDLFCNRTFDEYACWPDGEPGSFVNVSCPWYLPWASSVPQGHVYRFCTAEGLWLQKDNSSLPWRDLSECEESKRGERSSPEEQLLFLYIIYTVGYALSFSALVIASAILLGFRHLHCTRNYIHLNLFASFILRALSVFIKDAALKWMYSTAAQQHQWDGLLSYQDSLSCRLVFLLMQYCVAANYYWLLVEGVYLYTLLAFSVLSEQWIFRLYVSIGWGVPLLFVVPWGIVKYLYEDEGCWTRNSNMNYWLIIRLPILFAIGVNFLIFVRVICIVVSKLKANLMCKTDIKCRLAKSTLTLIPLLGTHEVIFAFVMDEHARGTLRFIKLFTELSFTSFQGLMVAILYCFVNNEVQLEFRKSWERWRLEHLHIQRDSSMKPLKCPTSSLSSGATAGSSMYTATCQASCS

Potency, inconclusive:
O=c1c(Cc2ccc(Cl)cc2)c(O)ccn1Cc1cccs1 28.2 µM [inhibitor, single point], COc1ccc(OC)c(/C=C/C(=O)c2ccc(Cl)cc2)c1 7.94 µM [inhibitor, single point], CCCCOc1cccc(C(=O)Nc2ccc(S(=O)(=O)Nc3nnc(CC)s3)cc2)c1 28.2 µM [inhibitor, single point], CCC(=O)Nc1cccc(C(=O)/C=C/c2ccc(F)cc2)c1 11.2 µM [inhibitor, single point], Cc1cccc(OC(C)C(=O)Nc2cc(Cl)ccc2-n2cncn2)c1 (centres undefined) 28.2 µM [inhibitor, single point], COc1ccc(S(=O)(=O)c2c(O)cc(C)c(NS(=O)(=O)c3ccccc3)c2C)cc1 28.2 µM [inhibitor, single point], Cc1ccc(CN2C(=O)C(Cc3ccccc3)Nc3ncnc(N4CCN(c5ccccc5)CC4)c32)cc1 (centres undefined) 10 µM [inhibitor, single point], Cc1c(C(=O)Nc2ccc(-c3nnc4n3CCCCC4)cc2)oc2c1ccc1ccccc12 10 µM [inhibitor, partial curve, poor fit], CCOc1ccc(CNC(=O)C2CCCN(S(=O)(=O)N3CC(C)CC(C)C3)C2)cc1OC (centres undefined) 7.94 µM [inhibitor, partial curve, poor fit], CCCN(CCC)CCCNC(=S)Nc1ccc2nc(N3CCN(CC)CC3)cc(C)c2c1 4.47 µM [inhibitor, full curve, poor fit], Cc1ccc(OCC(=O)Nc2ccc(C)c(S(=O)(=O)N3CCCCCC3)c2)c([N+](=O)[O-])n1 28.2 µM [inhibitor, single point], COc1ccc(C)cc1S(=O)(=O)N(CC(=O)NC1CCCC1)c1ccc(F)cc1 28.2 µM [inhibitor, single point], CN(CCOCCOc1ccc(Cl)cc1Br)Cc1ccccc1 12.6 µM [inhibitor, partial curve, poor fit], CCOC(=O)c1cc(-c2ccccc2C)n(CC2CC(c3ccc(OC)cc3)=NO2)n1 (centres undefined) 28.2 µM [inhibitor, single point], COc1c(C)cc(S(=O)(=O)Nc2cccc(-c3ccc(N4CCOCC4)nn3)c2)c(C)c1C 10 µM [inhibitor, single point], CCN1CCN(c2ncc(C(=O)N3CCCc4ccccc43)c3ccccc23)CC1 28.2 µM [inhibitor, single point], COc1cc(/C=C/C(=O)OCC(=O)N(C)CC(=O)Nc2ccc(F)cc2)ccc1OC(F)F 28.2 µM [inhibitor, single point], CC(=O)N(c1ccc(C)cc1)S(=O)(=O)c1ccc(Cl)cc1 10 µM [inhibitor, single point], O=C(NC(=O)c1ccccc1O)c1ccc2c(c1)CCO2 8.91 µM [inhibitor, partial curve, poor fit], CCOC(=O)c1[nH]c2ccc(OC)cc2c1NC(=S)N1CCN(c2cccc(C)c2C)CC1 3.16 µM [inhibitor, full curve, poor fit], Cc1nc2c(C(=O)NCc3ccccc3Cl)c[nH]n2c(=O)c1Cc1cccc(Cl)c1 10 µM [inhibitor, partial curve, poor fit], CCN(c1ccccc1)S(=O)(=O)c1ccc2[nH]cc(C(=O)NC3CCCCC3)c(=O)c2c1 8.91 µM [inhibitor, partial curve, poor fit], CCOc1ccc(Br)cc1S(=O)(=O)Nc1ccc(NC(=O)c2ccccc2F)cc1 12.6 µM [inhibitor, partial curve], Cc1ccccc1-n1cc(C(=O)c2cc(Cl)ccc2O)cc(C#N)c1=O 22.4 µM [inhibitor, single point], CCCCCn1cnc2sc(-c3ccccc3)cc2c1=O 14.1 µM [inhibitor, single point], Cc1c(Cl)cccc1NC(=O)CC(c1cccs1)N1Cc2ccccc2C1=O (centres undefined) 10 µM [inhibitor, partial curve, poor fit], CCCCn1c(=O)[nH]c(=O)c2c1nc(-c1ccc(OC)c(Br)c1)n2CC(C)C 28.2 µM [inhibitor, single point], O=C(Nc1cc(Cl)ccc1O)C1CC(c2ccccc2O)=NO1 (centres undefined) 22.4 µM [inhibitor, single point], CCOC(=O)C1CCN(c2c(C(=O)c3ccc(OCC)cc3)cnc3ccc(OC)cc23)CC1 28.2 µM [inhibitor, single point], COc1ccc(OCC(=O)Nc2ccc(NC(=O)c3ccccc3Cl)c(OC)c2)cc1 12.6 µM [inhibitor, partial curve, poor fit], CC(=O)c1cc(C(=O)c2ccccc2)sc1Nc1ccccc1 20 µM [inhibitor, single point], CC(C)=CCC12Oc3cc(O)ccc3C1(O)Oc1cc3c(c(O)c1C2=O)C=CC(C)(C)O3 (centres undefined) 28.2 µM [inhibitor, single point], COc1cc(CCC(=O)N2CCN(c3cccc(C)c3C)CC2)cc(OC)c1OC 10 µM [inhibitor, partial curve, poor fit], O=[N+]([O-])c1ccc(CNc2cccc(F)c2)s1 11.2 µM [inhibitor, partial curve], COc1ccc(C2CC(c3ccccc3)=NN2C(=O)COC(=O)C2CC2)cc1 (centres undefined) 6.31 µM [inhibitor, partial curve], CCCCCCCCCCOC(=O)NC1CCS(=O)(=O)C1 (centres undefined) 28.2 µM [inhibitor, single point], OC(c1ccco1)c1nc(-c2ccc(F)c(Cl)c2)cs1 (centres undefined) 22.4 µM [inhibitor, single point], CCOc1ccccc1CNC(=O)Cn1ccc2cc(S(=O)(=O)N3CCC(C)CC3)ccc21 28.2 µM [inhibitor, single point], COc1ccc(-c2ccccc2NC(=O)C2CCCN(Cc3ccc(C)o3)C2)cc1 (centres undefined) 10 µM [inhibitor, partial curve, poor fit], Cc1ccccc1-c1nc2ccccc2c(=O)n1/N=C/c1ccccc1[N+](=O)[O-] 28.2 µM [inhibitor, single point], CC(=C/c1ccco1)/C=N/NC(=O)CSc1nnc(SCc2ccc(C)cc2)s1 3.55 µM [inhibitor, partial curve, poor fit], CC(=O)c1cccc(NC(=O)CN(c2ccc(C)cc2)S(=O)(=O)c2cccc3nonc23)c1 5.01 µM [inhibitor, partial curve, poor fit], COc1ccc(C(=O)N/N=C/c2ccc(OC)c(COc3ccc(F)cc3F)c2)cc1 10 µM [inhibitor, partial curve], CC1(C)C(=O)C2(CCCCC2)C(=O)OC1c1cccs1 (centres undefined) 8.91 µM [inhibitor, partial curve], COc1cc(/C=C2/CC/C(=C/c3ccc(O)c(OC)c3)C2=O)ccc1O 28.2 µM [inhibitor, single point], O=C(NC(=S)NCc1ccccc1)c1cccc(Cl)c1 10 µM [inhibitor, single point], Clc1cccc2c1Sc1ccccc1CC2N1CCNCC1 (centres undefined) 5.62 µM [inhibitor, partial curve, poor fit], COc1ccc(CCNC(=O)c2ccc3c(c2)N(Cc2ccc(C)cc2)CCS3)cc1OC 11.2 µM [inhibitor, single point] and 10 µM [inhibitor, partial curve, poor fit], C=CCC1(O)C(=O)N2C(=C1C(=O)OCC)c1ccc3ccccc3c1CC2(C)C (centres undefined) 7.08 µM [inhibitor, partial curve, poor fit], CCOC(=O)[C@]12CCCC=C1N(Cc1ccco1)C(=O)[C@H](CC(=O)NCc1cccc3ccccc13)C2 28.2 µM [inhibitor, single point], O=C(Nc1ccc(OCc2ccccc2)cc1)Nc1cccnc1 31.6 µM [inhibitor, partial curve, poor fit]

Activity change, negative = inhibition, inactive:
S=c1[nH]nc(-c2ccccc2)n1/N=C/c1ccc(Cl)cc1 -6.23%, Clc1ccc(-c2ccc(CNCc3ccccn3)o2)cc1 -5.45%, CCCCN(C)CCCNC(=O)CN1C(=O)COc2ccc(S(=O)(=O)N3CCC(C)CC3)cc21 -22.2%, COc1cc(CC(=O)NCC2CCCCC2)cc(OC)c1OC 2%, CC(C)(C)OC(=O)C[C@@H]1C/C=C\C[C@@H](CC(=O)NCCO)C(=O)NC[C@@H](c2ccccc2)OC1=O -8.03%, CN1CCN(c2ccc(CNC(=O)C3(C)Cc4c(-c5ccc(C(N)=O)cc5)ccnc4O3)cc2)CC1 (centres undefined) 34.8%, CCc1nn2c(-c3ccccc3OC)ccnc2c1-c1ccc(F)cc1 -26.9%, O=C(C1=NN(c2ccccc2)C2C(=O)N(c3cccc(Cl)c3)C(=O)C12)c1ccccc1 (centres undefined) -11.4%
